Laboratory results as given in paper PMC6212790.
This is one part of the list. At the low end of the ranking the order means little.

molecular target: T1, GST-Rok-C97-191 (UniProt O34857); assay: protein binding microarray; conditions: Rok is a gene silencer of Bacillus subtilis; high values mean tight binding; most listed sequences are background and not binding sites; double strand, one strand shown;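 note: rank score from −0.5 (least bound) to 0.5 (best bound)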
T1 sequence: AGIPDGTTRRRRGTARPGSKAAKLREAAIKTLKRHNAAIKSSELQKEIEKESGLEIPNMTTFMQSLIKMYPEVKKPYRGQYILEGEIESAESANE

Sequence | binding signal [E-score]
GCCCCAAC | -0.271
CACAGAAG | 0.035
GGAGTACA | -0.00366
GACGGTAC | -0.0377
CATTGAAG | -0.104
CCGTCTGC | -0.105
AGATTCAG | -0.0728
AACAGGGA | -0.16
CGCCTGCA | -0.227
CCTTCCAA | -0.186
CGCTTTTC | 0.129
ATGGTTTA | 0.28
CCAGAAGC | -0.131
GGTATTGA | 0.111
GATATAAC | 0.297
CCTAAACG | 0.000713
GGATAGCC | -0.209
CGTCCGCA | -0.208
AGGTTGAT | 0.0277
GATCGACC | 0.0427
AGGCACGC | -0.274
GACGAGTA | 0.0943
CACCGTCG | -0.167
CGGGGCAG | -0.373
ACATTTCA | 0.221

Sequence | binding signal [E-score]
CAGGCTAC | -0.192
GAGCCTGA | -0.22
CACCGTAA | 0.106
ACTCCACT | -0.0722
GTGGTGCA | -0.159
GCGTTGTA | 0.0831
CCGATGAG | -0.169
GATACCCA | -0.014
AGTCCCAA | -0.0257
GCGTGTAA | 0.0219
GCCACTAA | -0.0379
ACTTATCT | 0.221
GGTGCCAA | 0.00719
GAGCACCC | -0.0764
ACGGATCC | -0.15
AGACCTCA | -0.134
ATGCGAAA | 0.23
ACGGTCCA | -0.176
AATGGCGC | 0.0882
AATTCCAG | 0.162
TATGCTAA | 0.126
GCCATGAC | -0.257
AAGGTTCA | -0.138
CAGTCACC | -0.186
AAGACGTG | -0.173

Sequence | binding signal [E-score]
GGGAAGAC | -0.241
CCTCTGAC | -0.206
AGGTATGG | -0.117
CACGCCCG | -0.284
AGGCAGCG | -0.107
ACATACAA | 0.288
ATATGCGC | 0.205
CGCTTCCC | -0.174
CCCTAATA | -0.128
CGCATCAA | -0.109
AAAGTCCT | -0.0609
AATCTCCA | 0.0949
AAGCAGAA | 0.172
AGTAAACA | 0.0358
CCGGTACC | -0.00258
CAAGTGTC | -0.101
TTCACGAA | 0.136
CCTCTTAA | -0.103
ACCCCAAA | -0.0824
CCACGTCG | -0.171
AGATAAGG | 0.0143
TACGTAAA | 0.235
CAGATCTG | -0.169
ACCCGAAT | 0.00906
AAAATTGC | 0.176

Sequence | binding signal [E-score]
AACAAGCG | -0.00832
TCACGTAA | -0.0226
CCTTTTCA | -0.0956
CGTTTCAA | -0.0393
ATCCAGTG | -0.118
CGTTAGGC | -0.121
TATTCCAA | 0.0785
GTTGAGAA | 0.114
GGTAACGA | 0.0496
CACACCTC | -0.0614
CTGGTTAC | 0.0826
ATCGTCCG | -0.127
TAGCGTGA | 0.00384
AGTTCTCG | 0.0661
CCGTTGCG | -0.23
CAAGGCGA | -0.256
GGGTTACA | -0.0771
ATGTGCCC | -0.0332
GAACGTAC | 0.0605
ACCCGCTG | -0.313
CTTTTTTA | -0.151
TAATGTCA | 0.0998
CATTATCA | 0.288
CCGTCGAC | -0.189
ATCCACAG | -0.0767

Sequence | binding signal [E-score]
AGAATACA | 0.191
ACTTAAGG | 0.0365
CTCAGAGC | -0.0822
CCACTCTC | -0.129
GCGGTTAA | 0.123
CGCGCCCA | -0.263
TATGCACA | 0.112
CTTTGACC | 0.0127
GCCGCTAA | 0.0977
CCACCTCG | -0.108
GAGAGTAC | 0.0998
CTGCGTCC | -0.338
AATCGTGG | 0.0422
CTACTCTC | -0.131
ACTTGCTG | 0.12
ATGCACCA | 0.109
GCAGCATA | -0.0778
ACAGCAGT | -0.122
AAGTAGCA | 0.259
AAATTACG | 0.273
ACACCAAT | -0.0322
GTCCGGGA | -0.213
ACTCGGCT | 0.00974
AAACATAT | 0.276
CGTAACCA | -0.225

Sequence | binding signal [E-score]
ACCCTATA | 0.153
CCACTACA | 0.0923
GGCGCGCA | -0.241
ATGGCTGA | 0.0806
GGGTATAC | 0.00875
ATGCACTG | -0.0611
GGCTTTTA | -0.0516
ACTCTCTG | -0.0614
AAAAAAGG | 0.0308
ACGTACCT | -0.00878
TCAGTCGA | -0.0223
AGTTCCCG | -0.0164
AGAGTTGA | -0.0835
AAAACCTT | -0.0438
AAGGGTAA | 0.183
AAAATTCT | 0.129
AGTGCTGG | -0.0287
CGTTAAGA | -0.0342
CTAAGAAA | 0.0591
AGAAGCTG | -0.0756
CTCCCAGA | -0.183
CATCTCCG | -0.244
ACAAAGTG | 0.0122
GACTAGGA | -0.0139
ACCTGTAG | 0.188

Sequence | binding signal [E-score]
AACCTATA | 0.183
AATTGCCT | -0.159
AATTGGGC | -0.217
AAATCGTC | 0.0128
CCCGTATC | -0.04
AAAGGTCC | -0.222
CGTGCTAG | 0.0138
CATGAAAC | -0.0657
CAGCGCGC | -0.211
TCAATGCA | -0.132
GTAAAGTA | 0.266
GCACCATA | 0.11
CATACAGG | -0.0755
GAAGCTGC | -0.161
ACGCCACT | -0.0989
ATTCGACC | -0.138
CAGGGGAA | -0.0921
GAGGTAAA | 0.197
CTGAAGCC | -0.138
CTACGGTC | -0.00263
CGGTCAGA | -0.0545
GGTCCAGA | -0.282
